Measured values: PubChem BioAssay (NCI)
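Exposure lasted 48 hours, with cells grown in 96-well plates and compounds tested at five concentrations. GI50: concentration for 50% inhibition of growth. TGI: concentration producing complete growth inhibition.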

Tested on: NCI-H322M lung
Test: NCI-60 cell line screen, 48 h

Row | Compound | GI50 [µM] | TGI [µM]
1 | COc1ccc(C(=O)/C=C/c2ccc(OC)c(OCc3ccccc3)c2)cc1OC | 3.77 | > 100
2 | CCN1CCN(c2ccc(NC(=O)Nc3ccc(-c4cc(C(=O)NC(C)C)c5ncccc5n4)cc3)cc2C(F)(F)F)CC1 | 1.85 | 7.24
